A lower IC50 marks a more sensitive line; a fit beyond the top or the lowest dose is shown as a bound at that dose. AUC sums up the same curve from the lowest dose to the 256-fold higher top dose; the more sensitive the line, the further below 1. Where the top dose is marked as inferred, it was calculated from the reported fits. For some assays here: An entry number marks a drug with two screens in the source, which often give different values.
What was measured:
Assay in all cases: Viability of human cancer cell lines after 72 h of drug (GDSC screen)
[1] = compound: Cc1cc([C@@H](C)Nc2ccccc2C(=O)O)c2nc(N3CCOCC3)cc(=O)n2c1 [AZD6482]
Description: (§1)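 Human cancer cell lines in 384-well plates, medium with 10% serum, drug for 72 h over a 256-fold dose range (nine 2-fold or five 4-fold steps up to the top dose). Adherent lines were fixed and stained with the nucleic acid dye Syto60, suspension lines read with resazurin; signal relative to control wells, capped at 0 and 100%. One two-parameter sigmoid per drug and line, fitted in a mixed model over all curves with the slope shared within a line.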

[2] = compound: Cn1ncnc1[C@H]1c2n[nH]c(=O)c3cc(F)cc(c23)N[C@@H]1c1ccc(F)cc1 [BMN-673]; conditions: top dose 10 µM; top dose inferred
Description: as §1

[3] = compound: NS(=O)(=O)OC[C@@H]1C[C@@H](n2ccc3c(N[C@H]4CCc5ccccc54)ncnc32)C[C@@H]1O [MLN4924]; conditions: top dose 1 µM; top dose inferred
Description: as §1

[4] = top dose 5 µM, screen: GDSC drug entry 1066, top dose inferred
[5] = top dose 5.12 µM, screen: GDSC drug entry 156

Row | Cell Line | AUC [1, 4] | IC50 [1, 4] [µM] | AUC [1, 5] | IC50 [1, 5] [µM] | AUC [2] | IC50 [2] [µM] | AUC [3] | IC50 [3] [nM]
1 | KARPAS-422 (B-cell lymphoma, suspension) | 0.653 | 0.822 | 0.69 | 1.08 | 0.985 | > 10 | 0.987 | > 1000
2 | LNZTA3WT4 (glioma, adherent) | 0.972 | > 5 | 0.911 | > 5.12 | 0.815 | 5.34 | 0.822 | 570
3 | HOP-62 (lung adenocarcinoma, adherent) | 0.953 | > 5 | 0.892 | > 5.12 | 0.544 | 0.825 | 0.646 | 158
4 | RPMI-2650 (head and neck, adherent) | 0.956 | > 5 | 0.893 | > 5.12 | 0.603 | 1.23 | 0.895 | > 1000
5 | RPMI-6666 (Hodgkin lymphoma, suspension) | 0.707 | 1.37 | 0.577 | 0.544 | 0.742 | 3.6 | 0.806 | 635
6 | BICR78 (head and neck, adherent) | 0.83 | 3.83 | 0.952 | > 5.12 | 0.873 | > 10 | 0.72 | 294
7 | NCI-H1581 (large cell lung carcinoma, semi-adherent) | 0.959 | > 5 | 0.99 | > 5.12 | 0.919 | > 10 | 0.974 | > 1000
8 | TE-15 (oesophagus, suspension) | 0.937 | > 5 | 0.814 | 3.24 | 0.983 | > 10 | 0.981 | > 1000
9 | NCI-H2170 (lung squamous cell carcinoma, adherent) | 0.967 | > 5 | 0.945 | > 5.12 | 0.767 | 3.88 | 0.875 | > 1000
10 | NB12 (neuroblastoma, adherent) | 0.696 | 1.36 | 0.892 | > 5.12 | 0.955 | > 10 | 0.961 | > 1000
11 | SW837 (large intestine, adherent) | 0.931 | > 5 | 0.965 | > 5.12 | 0.975 | > 10 | 0.98 | > 1000
12 | NCI-H2135 (non-small cell lung carcinoma, adherent) | 0.99 | > 5 | 0.971 | > 5.12 | 0.99 | > 10 | 0.977 | > 1000
13 | 5637 (bladder, adherent) | 0.962 | > 5 | 0.976 | > 5.12 | 0.78 | 3.7 | 0.739 | 278
14 | SCH (stomach, adherent) | 0.858 | 4.63 | 0.988 | > 5.12 | 0.887 | > 10 | 0.987 | > 1000
15 | DU-4475 (breast, suspension) | 0.97 | > 5 | 0.973 | > 5.12 | 0.98 | > 10 | 0.528 | 73.3
16 | PANC-10-05 (pancreas, adherent) | 0.915 | > 5 | 0.703 | 1.42 | 0.93 | > 10 | 0.931 | > 1000
17 | NCI-H2023 (lung adenocarcinoma, adherent) | 0.933 | > 5 | 0.921 | > 5.12 | 0.484 | 0.561 | 0.773 | 487
18 | ChaGo-K-1 (non-small cell lung carcinoma, adherent) |  |  | 0.968 | > 5.12 | 0.939 | > 10 | 0.9 | > 1000
19 | SN12C (kidney, adherent) | 0.85 | 4.55 | 0.967 | > 5.12 | 0.796 | 5.33 | 0.908 | > 1000
20 | SUP-M2 (anaplastic large cell lymphoma, suspension) | 0.993 | > 5 | 0.994 | > 5.12 | 0.043 | < 0.0391 | 0.772 | 299
21 | NU-DUL-1 (B-cell lymphoma, suspension) |  |  | 0.627 | 0.665 | 0.927 | > 10 | 0.895 | 794
22 | JSC-1 (B-cell lymphoma, suspension) | 0.984 | > 5 | 0.977 | > 5.12 | 0.598 | 1.16 | 0.865 | 870
23 | IST-SL1 (small cell lung carcinoma, semi-adherent) | 0.987 | > 5 | 0.956 | > 5.12 | 0.978 | > 10 | 0.902 | > 1000
24 | NCI-H1869 (lung squamous cell carcinoma, adherent) | 0.95 | > 5 | 0.898 | > 5.12 | 0.961 | > 10 | 0.967 | > 1000
25 | CPC-N (small cell lung carcinoma, suspension) | 0.974 | > 5 | 0.985 | > 5.12 | 0.914 | > 10 | 0.884 | > 1000
26 | CAL-39 (cervix, adherent) | 0.905 | > 5 | 0.744 | 1.65 | 0.838 | 7.13 | 0.815 | 574
27 | RCC10RGB (kidney, adherent) | 0.696 | 1.91 | 0.653 | 1.29 | 0.913 | > 10 | 0.944 | > 1000
28 | OMC-1 (cervix, adherent) | 0.966 | > 5 | 0.972 | > 5.12 | 0.952 | > 10 | 0.786 | 452
29 | MDA-MB-453 (breast, adherent) | 0.673 | 1 | 0.863 | > 5.12 | 0.916 | > 10 | 0.923 | > 1000
30 | SF539 (glioma, adherent) | 0.935 | > 5 | 0.958 | > 5.12 | 0.718 | 2.4 | 0.648 | 153

From the supplement of paper PMC4967469
